We go through six molecules from PMC11172389.

Chains of the proteins cited; added tags and fusions are not shown.
UniProt Q99246: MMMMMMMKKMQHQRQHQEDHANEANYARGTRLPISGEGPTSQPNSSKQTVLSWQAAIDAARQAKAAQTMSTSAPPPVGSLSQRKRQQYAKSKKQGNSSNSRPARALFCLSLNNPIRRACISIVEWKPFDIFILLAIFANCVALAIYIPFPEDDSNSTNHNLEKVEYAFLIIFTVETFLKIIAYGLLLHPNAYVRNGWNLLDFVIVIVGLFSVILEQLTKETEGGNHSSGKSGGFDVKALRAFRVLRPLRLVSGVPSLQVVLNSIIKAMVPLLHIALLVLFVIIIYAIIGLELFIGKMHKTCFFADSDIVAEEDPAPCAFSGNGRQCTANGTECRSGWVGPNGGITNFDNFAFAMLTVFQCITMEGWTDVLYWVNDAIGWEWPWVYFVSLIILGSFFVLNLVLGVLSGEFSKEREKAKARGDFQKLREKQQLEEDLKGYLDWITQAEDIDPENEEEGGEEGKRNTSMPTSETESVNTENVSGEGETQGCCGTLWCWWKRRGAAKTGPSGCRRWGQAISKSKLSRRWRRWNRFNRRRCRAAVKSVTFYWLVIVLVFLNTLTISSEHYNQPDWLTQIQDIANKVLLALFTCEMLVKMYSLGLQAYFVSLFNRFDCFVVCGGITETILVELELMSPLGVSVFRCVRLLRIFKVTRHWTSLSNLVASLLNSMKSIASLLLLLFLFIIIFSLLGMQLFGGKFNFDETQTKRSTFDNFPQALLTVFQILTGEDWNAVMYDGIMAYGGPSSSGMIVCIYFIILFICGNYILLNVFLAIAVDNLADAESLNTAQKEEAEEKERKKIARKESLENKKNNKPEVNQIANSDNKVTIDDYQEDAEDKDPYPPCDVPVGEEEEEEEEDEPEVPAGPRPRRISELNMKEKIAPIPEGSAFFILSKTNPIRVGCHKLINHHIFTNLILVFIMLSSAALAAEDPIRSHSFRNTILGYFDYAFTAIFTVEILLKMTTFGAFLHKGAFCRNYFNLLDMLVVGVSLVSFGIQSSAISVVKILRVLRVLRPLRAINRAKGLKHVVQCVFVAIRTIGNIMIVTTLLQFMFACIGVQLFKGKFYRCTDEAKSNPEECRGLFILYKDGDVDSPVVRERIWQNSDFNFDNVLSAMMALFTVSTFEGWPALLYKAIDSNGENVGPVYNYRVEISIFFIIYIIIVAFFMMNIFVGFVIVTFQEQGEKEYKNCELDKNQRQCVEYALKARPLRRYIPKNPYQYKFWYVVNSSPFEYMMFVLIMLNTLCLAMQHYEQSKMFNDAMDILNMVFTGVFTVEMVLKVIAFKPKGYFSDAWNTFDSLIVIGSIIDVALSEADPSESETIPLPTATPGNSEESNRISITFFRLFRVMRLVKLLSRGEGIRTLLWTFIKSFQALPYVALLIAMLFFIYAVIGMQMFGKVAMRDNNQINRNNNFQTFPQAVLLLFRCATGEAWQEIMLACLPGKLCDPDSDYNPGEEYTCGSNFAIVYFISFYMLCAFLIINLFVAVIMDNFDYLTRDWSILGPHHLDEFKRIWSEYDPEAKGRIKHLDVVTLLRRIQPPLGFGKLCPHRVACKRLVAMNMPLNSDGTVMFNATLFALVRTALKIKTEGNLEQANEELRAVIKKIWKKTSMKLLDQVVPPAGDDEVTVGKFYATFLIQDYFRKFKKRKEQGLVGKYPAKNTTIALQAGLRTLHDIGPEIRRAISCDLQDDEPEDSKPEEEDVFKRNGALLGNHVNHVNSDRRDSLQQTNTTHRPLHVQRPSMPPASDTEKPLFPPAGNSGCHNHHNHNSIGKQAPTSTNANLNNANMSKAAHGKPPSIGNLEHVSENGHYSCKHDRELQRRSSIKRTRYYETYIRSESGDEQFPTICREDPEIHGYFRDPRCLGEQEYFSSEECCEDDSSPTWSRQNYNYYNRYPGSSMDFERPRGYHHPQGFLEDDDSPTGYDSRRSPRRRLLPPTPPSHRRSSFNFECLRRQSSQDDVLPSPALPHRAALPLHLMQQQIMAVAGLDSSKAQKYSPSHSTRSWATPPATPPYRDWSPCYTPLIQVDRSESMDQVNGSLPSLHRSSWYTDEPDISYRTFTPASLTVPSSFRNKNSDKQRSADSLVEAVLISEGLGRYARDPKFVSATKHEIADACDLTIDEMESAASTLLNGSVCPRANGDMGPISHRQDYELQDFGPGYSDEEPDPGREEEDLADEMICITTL
UniProt P58391: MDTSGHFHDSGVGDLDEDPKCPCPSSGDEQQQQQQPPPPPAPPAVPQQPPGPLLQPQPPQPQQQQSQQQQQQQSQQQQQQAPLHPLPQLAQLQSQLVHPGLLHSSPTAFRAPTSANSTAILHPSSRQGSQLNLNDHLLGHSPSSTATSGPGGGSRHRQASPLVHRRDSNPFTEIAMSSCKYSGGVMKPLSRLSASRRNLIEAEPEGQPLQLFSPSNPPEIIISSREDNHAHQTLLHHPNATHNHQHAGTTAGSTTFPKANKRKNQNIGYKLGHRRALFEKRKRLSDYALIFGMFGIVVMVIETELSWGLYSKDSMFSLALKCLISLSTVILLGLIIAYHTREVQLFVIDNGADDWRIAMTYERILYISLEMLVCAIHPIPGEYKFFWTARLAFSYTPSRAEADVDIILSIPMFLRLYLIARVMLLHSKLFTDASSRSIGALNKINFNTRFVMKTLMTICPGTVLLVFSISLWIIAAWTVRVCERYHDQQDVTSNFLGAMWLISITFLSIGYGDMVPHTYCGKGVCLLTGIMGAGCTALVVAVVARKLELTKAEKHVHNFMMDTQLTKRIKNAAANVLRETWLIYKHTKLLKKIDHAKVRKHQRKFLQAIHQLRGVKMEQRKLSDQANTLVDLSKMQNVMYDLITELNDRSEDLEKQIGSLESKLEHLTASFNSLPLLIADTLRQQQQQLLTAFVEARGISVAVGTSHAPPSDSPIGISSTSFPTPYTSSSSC
UniProt Q9Z0V1: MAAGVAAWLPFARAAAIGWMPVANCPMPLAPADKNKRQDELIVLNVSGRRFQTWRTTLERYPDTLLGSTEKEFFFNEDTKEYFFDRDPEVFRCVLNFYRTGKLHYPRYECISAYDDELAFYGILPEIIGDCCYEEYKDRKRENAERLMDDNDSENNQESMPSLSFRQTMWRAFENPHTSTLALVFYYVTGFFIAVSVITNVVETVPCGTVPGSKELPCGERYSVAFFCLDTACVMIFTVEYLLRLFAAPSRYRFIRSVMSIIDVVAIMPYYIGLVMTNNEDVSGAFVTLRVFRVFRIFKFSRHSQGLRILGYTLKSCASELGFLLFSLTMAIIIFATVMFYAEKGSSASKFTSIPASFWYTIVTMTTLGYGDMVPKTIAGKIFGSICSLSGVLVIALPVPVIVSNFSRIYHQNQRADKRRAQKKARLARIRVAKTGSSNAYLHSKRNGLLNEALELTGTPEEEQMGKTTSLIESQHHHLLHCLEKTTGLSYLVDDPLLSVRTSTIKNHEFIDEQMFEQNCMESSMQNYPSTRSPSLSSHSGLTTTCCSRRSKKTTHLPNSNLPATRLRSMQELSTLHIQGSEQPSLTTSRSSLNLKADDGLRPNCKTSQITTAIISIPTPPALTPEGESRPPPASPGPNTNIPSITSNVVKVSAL

In experiment [1] the target is T1, hyperpolarization-activated cyclic nucleotide-gated channel HCN2 (mouse (endogenous in midbrain)) (UniProt O88703).
T1 sequence: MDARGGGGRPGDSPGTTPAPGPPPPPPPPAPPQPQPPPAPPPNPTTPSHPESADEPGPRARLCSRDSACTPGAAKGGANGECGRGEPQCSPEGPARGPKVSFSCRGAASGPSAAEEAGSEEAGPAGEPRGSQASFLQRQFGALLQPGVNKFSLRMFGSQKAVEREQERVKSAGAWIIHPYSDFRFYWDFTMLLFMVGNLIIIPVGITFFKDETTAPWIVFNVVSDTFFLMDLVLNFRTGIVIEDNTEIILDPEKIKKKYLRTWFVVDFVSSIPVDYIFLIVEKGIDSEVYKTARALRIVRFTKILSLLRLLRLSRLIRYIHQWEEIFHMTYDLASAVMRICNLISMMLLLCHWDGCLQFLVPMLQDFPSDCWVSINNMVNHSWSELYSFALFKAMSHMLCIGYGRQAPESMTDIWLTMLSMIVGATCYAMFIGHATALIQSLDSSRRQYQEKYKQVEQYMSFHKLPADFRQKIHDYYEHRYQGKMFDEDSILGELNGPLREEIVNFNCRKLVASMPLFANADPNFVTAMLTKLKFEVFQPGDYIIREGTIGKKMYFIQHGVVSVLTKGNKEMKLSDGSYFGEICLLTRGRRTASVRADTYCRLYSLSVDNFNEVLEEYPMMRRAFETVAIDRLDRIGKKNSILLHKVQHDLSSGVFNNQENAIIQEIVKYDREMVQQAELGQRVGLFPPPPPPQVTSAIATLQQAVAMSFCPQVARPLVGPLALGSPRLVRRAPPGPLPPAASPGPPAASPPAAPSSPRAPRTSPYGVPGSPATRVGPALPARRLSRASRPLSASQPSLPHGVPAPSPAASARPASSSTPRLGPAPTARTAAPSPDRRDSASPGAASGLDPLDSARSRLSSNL
Put plainly: proximity ligation; in situ Duolink PLA with two primary antibodies on fixed 40 µm mouse midbrain slices; puncta counted on tyrosine-hydroxylase-labelled SNc DA neurons; controls: KO mice or an antibody to another protein.

Experiment [2] has as its target Cav1.3 L-type voltage-dependent Ca2+ channel α1-subunit (mouse (endogenous in midbrain)) (UniProt Q99246). The description is as above.
For experiment [3] the target is unchanged. Put plainly: co-IP; mouse midbrain plasma-membrane-enriched fraction solubilised in ComplexioLyte CL47a (IP1) or CL48 (IP2), also in the other ComplexioLyte buffers of varying stringencies; antibody overnight at 4 °C, captured on protein A-Sepharose or protein A/G; immunoblot.
Experiment [4] deals with SK3 calcium-activated small-conductance potassium channel (mouse (endogenous in midbrain)) (UniProt P58391). Described as above.
Experiment [5] has as its target T2, hyperpolarization-activated cyclic nucleotide-gated channel HCN4 (mouse (endogenous in midbrain)) (UniProt O70507).
T2 sequence: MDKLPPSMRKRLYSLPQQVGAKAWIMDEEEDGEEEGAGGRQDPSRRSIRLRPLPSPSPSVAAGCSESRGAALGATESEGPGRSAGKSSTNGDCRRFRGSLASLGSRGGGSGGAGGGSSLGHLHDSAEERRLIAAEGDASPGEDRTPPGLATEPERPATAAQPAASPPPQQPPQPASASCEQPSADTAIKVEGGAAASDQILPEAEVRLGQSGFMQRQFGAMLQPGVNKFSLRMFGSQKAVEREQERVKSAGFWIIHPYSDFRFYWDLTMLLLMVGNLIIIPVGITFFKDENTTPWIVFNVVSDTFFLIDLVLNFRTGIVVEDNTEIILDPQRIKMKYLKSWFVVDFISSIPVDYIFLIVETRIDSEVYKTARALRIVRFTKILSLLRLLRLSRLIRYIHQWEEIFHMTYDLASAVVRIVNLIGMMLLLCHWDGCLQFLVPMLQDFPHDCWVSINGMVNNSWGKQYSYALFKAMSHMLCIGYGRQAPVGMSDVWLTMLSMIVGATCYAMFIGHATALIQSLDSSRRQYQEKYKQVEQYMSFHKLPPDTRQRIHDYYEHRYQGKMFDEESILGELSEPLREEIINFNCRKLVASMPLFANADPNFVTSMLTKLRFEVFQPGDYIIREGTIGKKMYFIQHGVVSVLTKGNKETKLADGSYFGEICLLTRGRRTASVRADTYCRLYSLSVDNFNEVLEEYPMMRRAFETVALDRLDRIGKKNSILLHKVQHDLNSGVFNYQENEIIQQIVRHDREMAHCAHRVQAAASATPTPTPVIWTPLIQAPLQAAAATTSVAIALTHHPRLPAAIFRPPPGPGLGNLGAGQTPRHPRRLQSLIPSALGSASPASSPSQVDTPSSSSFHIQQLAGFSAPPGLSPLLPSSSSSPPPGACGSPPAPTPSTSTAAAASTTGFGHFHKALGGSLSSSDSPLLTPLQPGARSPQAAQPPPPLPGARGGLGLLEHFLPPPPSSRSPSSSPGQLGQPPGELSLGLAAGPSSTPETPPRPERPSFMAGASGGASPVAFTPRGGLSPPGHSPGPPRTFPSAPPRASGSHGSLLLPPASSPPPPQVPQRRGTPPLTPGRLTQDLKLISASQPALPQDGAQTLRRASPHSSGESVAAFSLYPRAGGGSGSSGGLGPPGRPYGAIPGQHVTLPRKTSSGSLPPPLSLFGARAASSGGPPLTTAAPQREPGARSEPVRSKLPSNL
Description: proximity ligation; in situ Duolink PLA with two primary antibodies on fixed 40 µm mouse midbrain slices; puncta counted on tyrosine-hydroxylase-labelled SNc DA neurons; controls: KO mice or an antibody to another protein.

The target of experiment [6] is SK3 calcium-activated small-conductance potassium channel (mouse (endogenous in midbrain)) (UniProt P58391). The description is as above.
For experiment [7], the target named is Kv4.3 A-type potassium channel (mouse (endogenous in midbrain)) (UniProt Q9Z0V1). Description: co-IP; mouse midbrain plasma-membrane-enriched fraction solubilised in ComplexioLyte CL47a (IP1) or CL48 (IP2), also in the other ComplexioLyte buffers of varying stringencies; antibody overnight at 4 °C, captured on protein A-Sepharose or protein A/G; immunoblot.

No constants are given. Whether binding was seen depends on the method and setting. Binding seen in cells or lysates may run through a third protein. Some binding calls cover weakened binding; strength is not graded here.

“SK2 channel subunit (from UniProt P58390 1-574)”: the binding result in experiment [1] is on record as “no binding”.

On to “SK3 calcium-activated small-conductance potassium channel (from UniProt P58391 1-732)”, for which the binding result in experiment [2] and in experiment [3] was “binds” in each case.

As for “Cav1.3 L-type voltage-dependent Ca2+ channel α1-subunit (from UniProt Q99246 1-2179)”, the binding entry in experiment [4] was “binds”.

B1: sterile alpha and Toll/interleukin-1 receptor (TIR) motif-containing 1 (protein, UniProt Q6PDS3 28-724)
chain: LTVPGPDRSGGASPWWAAGGRGSREVSPGVGTEVQGALERSLPELQQALSELKQASAARAVGAGLAEVFQLVEEAWLLPAVGREVAQGLCDAIRLDGGLDLLLRLLQAPELETRVQAARLLEQILVAENRDRVARIGLGVILNLAKEREPVELARSVAGILEHMFKHSEETCQRLVAAGGLDAVLYWCRRTDPALLRHCALALANCALHGGQTVQRCMVEKRAAEWLFPLAFSKEDELLRLHACLAVAVLATNKEVEREVEHSGTLALVEPLVASLDPGRFARCLVDASDTSQGRGPDDLQSLVLLLDSSRLEAQCIGAFYLCAEAAIKSLQGKTKVFSDIGAIQSLKRLVSYSTNGTTSALAKRALRLLGEEVPRRILPCVASWKEAEVQTWLQQIGFSQYCENFREQQVDGDLLLRLTDEELQTDLGMKSSITRKRFFRELTELKTFASYATCDRSNLADWLGSLDPRFRQYTYGLVSCGLDRSLLHRVSEQQLLEDCGIRLGVHRTRILSAAREMLHSPLPCTGGKLSGDTPDVFISYRRNSGSQLASLLKVHLQLHGFSVFIDVEKLEAGKFEDKLIQSVIAARNFVLVLSAGALDKCMQDHDCKDWVHKEIVTALSCGKNIVPIIDGFEWPEPQALPEDMQAVLTFNGIKWSHEYQEATIEKIIRFLQGRPSQDSSAGSDTSLEGATPMGLP
Consider B1, for which the binding result in experiment [5] is “binds”.

B2: sclerosis tuberous complex protein Tsc1 (protein, UniProt Q9EP53 1-1161)
chain: MAQLANIGELLSMLDSSTLGVRDDVTAIFKESLNSERGPMLVNTLVDYYLETNSQPVLHILTTLQEPHDKHLLDKINEYVGKAATRLSILSLLGHVVRLQPSWKHKLSQAPLLPSLLKCLKMDTDVVVLTTGVLVLITMLPMIPQSGKQHLLDFFDIFGRLSSWCLKKPGHVTEVYLVHLHASVYALFHRLYGMYPCNFVSFLRSHYSMKENVETFEEVVKPMMEHVRIHPELVTGSKDHELDPRRWKTLETHDVVIECAKISLDPTEASYEDGYSVSHQLSACFPYRSADVTTSPYVDTQNSYGGSTSTPSSSSRLMLFSPPGQLPQSLSSPSTRLLPEPLQASLWSPSAVCGMTTPPTSPGNVPADLSHPYSKAFGTTAGGKGTPSGTPATSPPPAPPCPQDDCVHGSAAQASATAPRKEERADSSRPYLHRQSNDRGLEDPPGSKGSVTLRNLPDFLGDLASEEDSIEKDKEEAAISKELSEITTAEADPVVPRGGFDSPFYRDSLSGSQRKTHSAASGTQGSSVNPEPLHSSLDKHGPDTPKQAFTPIDPPSGSADVSPAGDRDRQTSLETSILTPSPCKIPPQRGVSFGSGQLPPYDHLFEVALPKTACHFVSKKTEELLKKVKGNPEEDCVPSTSPMEVLDRLIEQGAGAHSKELSRLSLPSKSVDWTHFGGSPPSDELRTLRDQLLLLHNQLLYERFKRQQHALRNRRLLRKVIRAAALEEHNAAMKDQLKLQEKDIQMWKVSLQKEQARYSQLQEQRDTMVTQLHSQIRQLQHDREEFYNQSQELQTKLEDCRNMIAELRVELKKANNKVCHTELLLSQVSQKLSNSESVQQQMEFLNRQLLVLGEVNELYLEQLQSKHPDTTKEVEMMKTAYRKELEKNRSHLLQQNQRLDASQRRVLELESLLAKKDHLLLEQKKYLEDVKSQASGQLLAAESRYEAQRKITRVLELEILDLYGRLEKDGRLRKLEEDRAEAAEAAEERLDCCSDGCTDSLVGHNEEASGHNGETRTSRPGGTRASCGGRVTGGSSSSSSELSTPEKPPSQRFSSRWEPALGEPSSSIPTTVGSLPSSKSFLGMKARELFRNKSESQCDEDSVTMSSSSLSETLKTELGKDSGTENKTSLSLDAPHPSSPNSDNVGQLHIMDYNETHPEHS
As for B2, the binding entry in experiment [6] is recorded as “binds”.

B3: hyperpolarization-activated cyclic nucleotide-gated channel HCN4 (protein, UniProt O70507 1-1201)
chain: MDKLPPSMRKRLYSLPQQVGAKAWIMDEEEDGEEEGAGGRQDPSRRSIRLRPLPSPSPSVAAGCSESRGAALGATESEGPGRSAGKSSTNGDCRRFRGSLASLGSRGGGSGGAGGGSSLGHLHDSAEERRLIAAEGDASPGEDRTPPGLATEPERPATAAQPAASPPPQQPPQPASASCEQPSADTAIKVEGGAAASDQILPEAEVRLGQSGFMQRQFGAMLQPGVNKFSLRMFGSQKAVEREQERVKSAGFWIIHPYSDFRFYWDLTMLLLMVGNLIIIPVGITFFKDENTTPWIVFNVVSDTFFLIDLVLNFRTGIVVEDNTEIILDPQRIKMKYLKSWFVVDFISSIPVDYIFLIVETRIDSEVYKTARALRIVRFTKILSLLRLLRLSRLIRYIHQWEEIFHMTYDLASAVVRIVNLIGMMLLLCHWDGCLQFLVPMLQDFPHDCWVSINGMVNNSWGKQYSYALFKAMSHMLCIGYGRQAPVGMSDVWLTMLSMIVGATCYAMFIGHATALIQSLDSSRRQYQEKYKQVEQYMSFHKLPPDTRQRIHDYYEHRYQGKMFDEESILGELSEPLREEIINFNCRKLVASMPLFANADPNFVTSMLTKLRFEVFQPGDYIIREGTIGKKMYFIQHGVVSVLTKGNKETKLADGSYFGEICLLTRGRRTASVRADTYCRLYSLSVDNFNEVLEEYPMMRRAFETVALDRLDRIGKKNSILLHKVQHDLNSGVFNYQENEIIQQIVRHDREMAHCAHRVQAAASATPTPTPVIWTPLIQAPLQAAAATTSVAIALTHHPRLPAAIFRPPPGPGLGNLGAGQTPRHPRRLQSLIPSALGSASPASSPSQVDTPSSSSFHIQQLAGFSAPPGLSPLLPSSSSSPPPGACGSPPAPTPSTSTAAAASTTGFGHFHKALGGSLSSSDSPLLTPLQPGARSPQAAQPPPPLPGARGGLGLLEHFLPPPPSSRSPSSSPGQLGQPPGELSLGLAAGPSSTPETPPRPERPSFMAGASGGASPVAFTPRGGLSPPGHSPGPPRTFPSAPPRASGSHGSLLLPPASSPPPPQVPQRRGTPPLTPGRLTQDLKLISASQPALPQDGAQTLRRASPHSSGESVAAFSLYPRAGGGSGSSGGLGPPGRPYGAIPGQHVTLPRKTSSGSLPPPLSLFGARAASSGGPPLTTAAPQREPGARSEPVRSKLPSNL
Turning to B3, the binding result in experiment [3] is listed as “binds”; in experiment [7], “no binding”; in experiment [4], “binds”.
